From the supplement of paper PMC12217912
The list shows a part of the results. Sequences were assembled here from the parent chain. Inactive controls read about 0.05.

B1: TEV protease; numbered along this chain (parent)
chain: MGESLFKGPRDYNPISSSICHLTNESDGHTTSLYGIGFGPFIITNKHLFRRNNGTLVVQSLHGVFKVKDTTTLQQHLVDGRDMIIIRMPKDFPPFPQKLKFREPQREERICLVTTNFQTKSMSSMVSDTSCTFPSGDGIFWKHWIQTKDGQCGSPLVSTRDGFIVGIHSASNFTNTNNYFTSVPKNFMELLTNQEAQQWVSGWRLNADSVLWGGHKVFMVKPEEPFQPVKEATQL

Variants of: B1
Assay: raw area under fraction-flipped curve 0-4 h after induction (AUC4h, not background-subtracted), DNA-recorder readout of cleavage of the substrate (dimensionless); higher = more cleavage of the substrate by the protease variant
Conditions: temperature: 34 °C; time window: 0-4 h after rhamnose induction
Experimental: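 In vivo DNA recorder in E. coli TOP10(DE3) ΔrhaA at 34 °C. Each TEVp single-site mutant (parent TEVp 0) is paired with a single-site variant of the 7-mer TEVs (canonical ENLYFQ|S). The substrate sits between flexible linkers in a Bxb1-sfGFP-TEVs-SsrA fusion, so cleavage stabilises Bxb1 and speeds flipping of a recombination array, read by NGS. The value is the raw area under the fraction-flipped curve over 0-4 h after rhamnose induction (AUC4h), with ≥20 reads per time point. It is not background-subtracted; inactive controls average about 0.047.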
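Also: Bxb1 expression induced with 0.2% (w/v) L-rhamnose at OD600 near 0.5, cultures sampled hourly, flipped fraction per protease–substrate barcode pair counted by paired-end Illumina sequencing.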

Variant | area with substrate CNLYFQS | area with substrate PNLYFQS | area with substrate SNLYFQS | area with substrate GNLYFQS | area with substrate INLYFQS | area with substrate MNLYFQS | area with substrate HNLYFQS | area with substrate LNLYFQS | area with substrate VNLYFQS | area with substrate WNLYFQS
MGESLFKGPRDYNPISSSICHLTNESDGHTTSLYGIGFGPFIITNKHLFRRNNGTLVVQSLHGVFKVKDTTTLQQHLVDGRDMIIIRMPKDFPPFPQKLKFREPQREERICLVTTNFQTKSMSSMVSDTSCTFPSGDGIFWKHWIQTKDGQCGSPLVSTRDGFIVGIHSASNFTNTNNYFTSVPKNFMELLTNQEAQQWVSGWRLNADSVLWGGHKVFMVKPEEPFQPVKEATQG [L235G] | 0.066 | 0.0683 | 0.0764 | – | – | – | – | – | – | –
MGESLFKGPRDYNPISSSICHLTNESDGHTTSLYGIGFGPFIITNKHLFRRNNGTLVVQSLHGVFKVKDTTTLQQHLVDGRDMIIIRMPKDFPPFPQKLKFREPQREERICLVTTNFQTKSMSSMVSDTSCTFPSGDGIFWKHWIQTKDGQCGSPLVSTRDGFIVGIHSASNFTNTNNYFTSVPKNFMELLTNQEAQQWVSGWRLNADSVLWQGHKVFMVKPEEPFQPVKEATQL [G213Q] | 0.0216 | – | 0.0748 | 0.041 | 0.0518 | 0.0834 | – | – | – | –
MGESLFKGPRDYNPISSSICHLTNESDGHTTSLYGIGFGPFIITNKHLFRRNNGTLVVQSLHGVFKVKDTTTLQQHLVDGRDMIIIRMPKDFPPFPQKLKFREPQREERICLVTTNFQTKSMSSMVSDTSCTFPSGDGIFWKHWIQTKDGQCGSPLVSTRDGFIVGIHSASNFTNTNNYFTSVPKNFMELLTNQEAQQWVSGWRLNADSVLWGGHKVFMTKPEEPFQPVKEATQL [V220T] | 0.098 | 0.0779 | 0.0571 | – | – | – | 0.0766 | 0.036 | – | –
MGESLFKGPRDYNPISSSICHLTNESDGHTTSLYGIGFGPFIITNKHLFRRNNGTLVVQSLHGVFKVKDTTTLQQHLVDGRDMIIIRMPKDFPPFPQKLKFREPQREERICLVTTNFQTKSMSSMVSDTSCTFPSGDGIFWKHWIQTKDGQCGSPLVSTRDGFIVGIHSASNFTNTNNYFTSVPKNFMELLTNQEAQQWVSGWRLNADSVLWGGHKVFMVKPEEPFFPVKEATQL [Q227F] | 0.0719 | 0.0589 | – | 0.0712 | 0.0573 | – | – | 0.0646 | 0.036 | 0.0597
MGESLFKGPRDYNPISSSICHLTNESDGHTTSLYGIGFGPFIITNKHLFRRNNGTLVVQSLHGVFKVKDTTTLQQHLVDGRDMIIIRMPKDFPPFPQKLKFREPQREERICLVTTNFQTKSMSSMVSDTSCTFPSGDGIFWKHWIQTKDGQCGSPLVSTRDGFIVGIHSASNFTNTNNYFTSVPKNFMELLTNQEAQQWVSGWRLNADSVLWGGHKVFMVKPEEPFNPVKEATQL [Q227N] | 0.0583 | 0.0662 | 0.0722 | – | 0.0635 | 0.0601 | – | 0.0702 | – | 0.0559
MGESLFKGPRDYNPISSSICHLTNESDGHTTSLYGIGFGPFIITNKHLFRRNNGTLVVQSLHGVFKVKDTTTLQQHLVDGRDMIIIRMPKDFPPFPQKLKFREPQREERICLVTTNFQTKSMSSMVSDTSCTFPSGDGIFWKHWIQTKDGQCGSPLVSTRDGFIVGIHSASNFTNTNNYFTSVPKNFMELLTNQEAQQWVSGWRLNADSVLWGGHKVFMVKPEEPFGPVKEATQL [Q227G] | 0.0555 | 0.0916 | 0.0496 | – | 0.0584 | – | 0.056 | – | 0.084 | 0.0628
MGESLFKGPRDYNPISSSICHLTNESDGHTTSLYGIGFGPFIITNKHLFRRNNGTLVVQSLHGVFKVKDTTTLQQHLVDGRDMIIIRMPKDFPPFPQKLKFREPQREERICLVTTNFQTKSMSSMVSDTSCTFPSGDGIFWKHWIQTKDGQCGSPLVSTRDGFIVGIHSASNFTNTNNYFTSVPKNFMELLTNQEAQQWVSGWRLNADSVLWGGHKVFMVKPEESFQPVKEATQL [P225S] | 0.0899 | – | 0.0538 | – | – | – | 0.107 | 0.0527 | – | –
MGESLFKGPRDYNPISSSICHLTNESDGHTTSLYGIGFGPFIITNKHLFRRNNGTLVVQSLHGVFKVKDTTTLQQHLVDGRDMIIIRMPKDFPPFPQKLKFREPQREERICLVTTNFQTKSMSSMVSDTSCTFPSGDGIFWKHWIQTKDGQCGSPLVSTRDGFIVGIHSASNFTNTNNYFTSVPKNFMELLTNQEAQQWVSGWRLNADSVLWGGHKVFMVKPEEPFQPVKLATQL [E231L] | 0.0545 | – | 0.0684 | – | – | – | 0.0657 | – | – | 0.0747
MGESLFKGPRDYNPISSSICHLTNESDGHTTSLYGIGFGPFIITNKHLFRRNNGTLVVQSLHGVFKVKDTTTLQQHLVDGRDMIIIRMPKDFPPFPQKLKFREPQREERICLVTTNFQTKSMSSMVSDTSCTFPSGDGIFWKHWIQTKDGQCGSPLVSTRDGFIVGIHSASNFTNTNNYFTSVPKNFMELLTNQEAQQWVSGWRLNADSVLWGGHKVFMVKPEEPFQPVKPATQL [E231P] | 0.0471 | 0.0468 | 0.0647 | – | – | – | – | 0.0622 | – | –
MGESLFKGPRDYNPISSSICHLTNESDGHTTSLYGIGFGPFIITNKHLFRRNNGTLVVQSLHGVFKVKDTTTLQQHLVDGRDMIIIRMPKDFPPFPQKLKFREPQREERICLVTTNFQTKSMSSMVSDTSCTFPSGDGIFWKHWIQTKDGQCGSPLVSTRDGFIVGIHSASNFTNTNNYFTSVPKNFMELLTNQEAQQWVSGWRLNADSVLWGGHKRFMVKPEEPFQPVKEATQL [V217R] | 0.0622 | – | – | 0.0667 | 0.0498 | – | – | – | – | –
MGESLFKGPRDYNPISSSICHLTNESDGHTTSLYGIGFGPFIITNKHLFRRNNGTLVVQSLHGVFKVKDTTTLQQHLVDGRDMIIIRMPKDFPPFPQKLKFREPQREERICLVTTNFQTKSMSSMVSDTSCTFPSGDGIFWKHWIQTKDGQCGSPLVSTRDGFIVGIHSASNFTNTNNYFTSVPKNFMELLTNQEAQQWVSGWRLNADSVLWGGHKVFMVAPEEPFQPVKEATQL [K221A] | 0.0636 | 0.0472 | – | 0.0708 | – | – | 0.0671 | 0.0571 | 0.0687 | –
MGESLFKGPRDYNPISSSICHLTNESDGHTTSLYGIGFGPFIITNKHLFRRNNGTLVVQSLHGVFKVKDTTTLQQHLVDGRDMIIIRMPKDFPPFPQKLKFREPQREERICLVTTNFQTKSMSSMVSDTSCTFPSGDGIFWKHWIQTKDGQCGSPLVSTRDGFIVGIHSASNFTNTNNYFTSVPKNFMELLTNQEAQQWVSGWRLNADSVLWGGHKVFMVKPGEPFQPVKEATQL [E223G] | 0.0417 | – | – | – | – | – | 0.0631 | – | – | –

Same assay, conditions: temperature: 34 °C; time window: 0-4 h after rhamnose induction

Variant | area with substrate KNLYFQS | area with substrate NNLYFQS | area with substrate TNLYFQS | area with substrate YNLYFQS | area with substrate RNLYFQS | area with substrate FNLYFQS | area with substrate QNLYFQS
MGESLFKGPRDYNPISSSICHLTNESDGHTTSLYGIGFGPFIITNKHLFRRNNGTLVVQSLHGVFKVKDTTTLQQHLVDGRDMIIIRMPKDFPPFPQKLKFREPQREERICLVTTNFQTKSMSSMVSDTSCTFPSGDGIFWKHWIQTKDGQCGSPLVSTRDGFIVGIHSASNFTNTNNYFTSVPKNFMELLTNQEAQQWVSGWRLNADSVLWGGHKVFMVKPEEPFNPVKEATQL [Q227N] | 0.0665 | 0.0744 | 0.0653 | 0.0757 | – | – | –
MGESLFKGPRDYNPISSSICHLTNESDGHTTSLYGIGFGPFIITNKHLFRRNNGTLVVQSLHGVFKVKDTTTLQQHLVDGRDMIIIRMPKDFPPFPQKLKFREPQREERICLVTTNFQTKSMSSMVSDTSCTFPSGDGIFWKHWIQTKDGQCGSPLVSTRDGFIVGIHSASNFTNTNNYFTSVPKNFMELLTNQEAQQWVSGWRLNADSVLWGGHKVFMVKPEEPFGPVKEATQL [Q227G] | 0.0658 | – | 0.0668 | 0.0497 | – | – | –
MGESLFKGPRDYNPISSSICHLTNESDGHTTSLYGIGFGPFIITNKHLFRRNNGTLVVQSLHGVFKVKDTTTLQQHLVDGRDMIIIRMPKDFPPFPQKLKFREPQREERICLVTTNFQTKSMSSMVSDTSCTFPSGDGIFWKHWIQTKDGQCGSPLVSTRDGFIVGIHSASNFTNTNNYFTSVPKNFMELLTNQEAQQWVSGWRLNADSVLWGGHKVFMVKPEESFQPVKEATQL [P225S] | – | – | – | 0.0586 | – | – | –
MGESLFKGPRDYNPISSSICHLTNESDGHTTSLYGIGFGPFIITNKHLFRRNNGTLVVQSLHGVFKVKDTTTLQQHLVDGRDMIIIRMPKDFPPFPQKLKFREPQREERICLVTTNFQTKSMSSMVSDTSCTFPSGDGIFWKHWIQTKDGQCGSPLVSTRDGFIVGIHSASNFTNTNNYFTSVPKNFMELLTNQEAQQWVSGWRLNADSVLWGGHKVFMVKPEEPFQPVKLATQL [E231L] | – | – | – | – | 0.0447 | – | –
MGESLFKGPRDYNPISSSICHLTNESDGHTTSLYGIGFGPFIITNKHLFRRNNGTLVVQSLHGVFKVKDTTTLQQHLVDGRDMIIIRMPKDFPPFPQKLKFREPQREERICLVTTNFQTKSMSSMVSDTSCTFPSGDGIFWKHWIQTKDGQCGSPLVSTRDGFIVGIHSASNFTNTNNYFTSVPKNFMELLTNQEAQQWVSGWRLNADSVLWGGHKVFMVKPEEPFQPVKPATQL [E231P] | – | 0.0639 | – | – | 0.0697 | 0.0705 | 0.0647
MGESLFKGPRDYNPISSSICHLTNESDGHTTSLYGIGFGPFIITNKHLFRRNNGTLVVQSLHGVFKVKDTTTLQQHLVDGRDMIIIRMPKDFPPFPQKLKFREPQREERICLVTTNFQTKSMSSMVSDTSCTFPSGDGIFWKHWIQTKDGQCGSPLVSTRDGFIVGIHSASNFTNTNNYFTSVPKNFMELLTNQEAQQWVSGWRLNADSVLWGGHKRFMVKPEEPFQPVKEATQL [V217R] | – | 0.0737 | – | 0.0593 | – | 0.0601 | –
MGESLFKGPRDYNPISSSICHLTNESDGHTTSLYGIGFGPFIITNKHLFRRNNGTLVVQSLHGVFKVKDTTTLQQHLVDGRDMIIIRMPKDFPPFPQKLKFREPQREERICLVTTNFQTKSMSSMVSDTSCTFPSGDGIFWKHWIQTKDGQCGSPLVSTRDGFIVGIHSASNFTNTNNYFTSVPKNFMELLTNQEAQQWVSGWRLNADSVLWGGHKVFMVAPEEPFQPVKEATQL [K221A] | 0.0784 | – | 0.0708 | – | – | – | –
